Measured values reported in PubChem BioAssay AID485364 (National Center for Advancing Translational Sciences (NCATS), 2010).
Screen size: about 360,000 compounds; about 11,000 (3.1%) were called active. The inconclusive results got no clear call from the source; some entries with a clear call stand among them for comparison. Calls come from the whole dose curve; as a rule, active = well fitted inhibition curve with a large enough effect; inconclusive = small, poorly fitted or top-dose-only effect; inactive = no such curve, though single readings can be large or run the other way. No potency is given beside an inconclusive call; the fits are too rough.

biological target: Schistosoma mansoni thioredoxin glutathione reductase (TGR) (UniProt Q962Y6); assay: qHTS Assay for the Inhibitors of Schistosoma Mansoni Peroxiredoxins; conditions: purified TGR, DTNB reduction, TNB absorbance 405 nm; activity change, negative = inhibition: at 114 µM (top of the series) unless noted; note: nearly all actives have a fitted effect of over 60% in size
Procedure, shortened: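 TGR 20 nM + NADPH 100 uM (dispensed conc.), cpd preinc 15 min RT; start with NADPH (500 uM addition) then DTNB (15 mM addition). Kinetic TNB absorbance, 405 nm filter. Four-parameter Hill fit across titration.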
% is set by controls: 0 for no effect and ±100 for the full control effect; potency is the fitted concentration of half-maximal effect; tags give direction and shape of the fitted curve.

SMILES	activity change, negative = inhibition	Potency
Cc1ccc(C(=O)Nc2ccc(-c3cn4cccnc4n3)cc2)cc1C	inactive: 3.68%	–
COc1ccc(COCC(O)CN(Cc2ccccc2)C(C)C)cc1OC (stereo not drawn)	–	inconclusive [inhibitor, partial curve]
COc1ccc(NC(=S)NCc2ccc(F)cc2)cc1	–	inconclusive [inhibitor, full curve, poor fit]
COc1cc(OC)c(OC)cc1CN1CCN(Cc2cccn2C)CC1	–	inconclusive [inhibitor, partial curve]
C=CCn1c(SCC(=O)OC)nc2sc3c(c2c1=O)CCN(C)C3	–	inconclusive [inhibitor, partial curve]
O=C(CSc1nnc(-c2ccccn2)o1)Nc1ccccc1F	inactive: -0.23%	–
CCCCN1C(=O)/C(=C/c2ccc(N3CCCCCC3)cc2)C(=O)NC1=S	–	inconclusive [inhibitor, full curve]
O=C1NC(=O)/C(=C\c2ccc(OCc3cnc(Cl)s3)cc2)S1	inactive: 9.91%	–
Cc1ccc(CNC(=O)c2ccc(Cn3nc(C)c(Cl)c3C)o2)cc1	–	active: 25.1 µM
Cc1[nH][nH]c(=O)c1C(c1ccc(-c2ccc(Cl)cc2Cl)o1)c1c(C)[nH][nH]c1=O	–	inconclusive [inhibitor, partial curve]
Cc1onc(-c2ccccc2)c1-c1nnc(COC(=O)c2ccc(O)cc2)o1	–	inconclusive [inhibitor, partial curve]
CCOC(=O)C1=C(C)NC(C)=C(C(=O)OCCNC(=O)c2cccnc2)C1c1cccc([N+](=O)[O-])c1 (stereo not drawn)	inactive: -27.9%	–
COC(=O)c1ccc2c(=O)[nH]c(CN3c4ccccc4CC3C)nc2c1 (stereo not drawn)	–	active: 7.08 µM
C/C(=N\Nc1ccc2nncn2n1)c1ccccn1	inactive: -2.2%	–
Cc1ccc(OCC(=O)NC(C)c2ccccc2)cc1C (stereo not drawn)	–	inconclusive [inhibitor, partial curve, poor fit]
Cc1nn(-c2ccccc2)c2c1C1(C(=O)N3c4c(cccc41)C(C)CC3(C)C)C(C#N)=C(N)O2 (stereo not drawn)	–	inconclusive [inhibitor, single point]
Cc1ccc(C(=O)C2=C(O)C(=O)N(Cc3cccnc3)C2c2ccc(Br)cc2)o1 (stereo not drawn)	–	inconclusive [inhibitor, partial curve, poor fit]
CCCn1ncc(CN2CCN(Cc3ccc(C)o3)C(CCO)C2)c1C (stereo not drawn)	–	inconclusive [inhibitor, partial curve]
CN(C)c1ccc(N2CN=C3SCC(=O)N3C2)cc1	–	inconclusive [inhibitor, partial curve]
CCn1cc([N+](=O)[O-])c(C(=O)Nc2ccc3c(c2)OCCO3)n1	inactive: -15.2%	–
O=C(COc1cccc(Br)c1)N/N=C1\CCSC1	–	inconclusive [inhibitor, full curve, poor fit]
CCCn1c(SCC(=O)Nc2c(CC)cccc2CC)nnc1C(C)C	inactive: -14.9%	–
CCOC(=O)c1cc2c(=O)n3ccccc3nc2n(Cc2ccco2)c1=NC(=O)c1cccc(OC)c1	–	inconclusive [inhibitor, full curve]
COc1ccc(C(=O)Nc2ccc(CN3CCOCC3)cc2)cc1Br	–	inconclusive [inhibitor, full curve, poor fit]
COc1c(C)cccc1C(=O)Nc1cccc2ccc(C)nc12	inactive: -2.83%	–

SMILES	activity change, negative = inhibition	Potency
CC1=CC(C)(C)N2C(=O)C3(C(C#N)=C(N)Oc4cc(C)oc(=O)c43)c3cccc1c32 (stereo not drawn)	inactive: 9.45%	–
CC(=O)c1cccc(NC(=O)C2CCN(S(=O)(=O)c3ccc4c(c3)oc(=O)n4C)CC2)c1	inactive: -1.15%	–
CCOC(=O)C1(CCOc2ccccc2)CCN(Cc2cc(OC)c(O)c(OC)c2)CC1	–	active: 39.8 µM
CSc1nc(-c2ccco2)nn1C(=O)c1cccs1	–	inconclusive [inhibitor, partial curve, poor fit]
CCCCN(C)C(=O)CS(=O)(=O)Cc1nc(-c2cccc(OC)c2)oc1C	–	active: 22.4 µM
O=C(CN1CCCC1=O)NC1CCCc2c1cnn2-c1cc(F)cc(F)c1 (stereo not drawn)	inactive: -30.9%	–
O=C(NCc1ccco1)/C(=C/c1ccco1)NC(=O)c1ccco1	–	active: 25.1 µM
O=C(O)c1ccccc1C(c1ccc(O)cc1)c1ccc(O)cc1	–	inconclusive [inhibitor, single point]
COc1cc2c(cc1OC)C1O[C@](c3ccsc3)(C2)Oc2c1c(=O)oc1ccc(F)cc21	–	inconclusive [inhibitor, partial curve]
Cc1[nH]c(=O)[nH]c(=O)c1/C=N/NC(=O)[C@@H](NC(=O)OC(C)(C)C)C(C)C	–	active: 35.5 µM
COc1ccc(CCNC(=O)CSc2nnc3ccc(-c4ccccn4)nn23)cc1	inactive: 2.81%	–
CCCCNC(c1ccccc1)c1ccncc1 (stereo not drawn)	–	inconclusive [inhibitor, single point]
CC1(c2ccc(Cl)cc2)NC(=O)N(CC(=O)NC(=O)NCc2ccco2)C1=O (stereo not drawn)	–	inconclusive [inhibitor, partial curve]
CCOC(=O)C1=C(c2ccccc2)Nc2ncnn2C1c1cc(OC)cc(OC)c1OC (stereo not drawn)	inactive: -28.4%	–
CN(Cc1ccccc1)C(=O)c1ccc2c(c1)N(Cc1ccccc1Cl)C(=O)c1ccccc1S2	inactive: 6.68%	–
COc1cc(/C=N/NC(=O)c2c(-c3c(Cl)cccc3Cl)noc2C)ccc1OCC(N)=O	inactive: 3.01%	–
CCN1C(=O)c2ccccc2S(=O)c2ccc(C(=O)N3CCN(c4cc(Cl)ccc4C)CC3)cc21 (stereo not drawn)	inactive: -4.63%	–
O=C(NC(=S)Nc1ccc(S(=O)(=O)N2CCCCC2)cc1)c1ccccc1	–	inconclusive [inhibitor, single point]
COc1nc2ccccc2cc1-c1noc(-c2cccnc2)n1	inactive: 0%	–
Cc1cccc2c1NC(=O)C2(c1ccc(O)cc1)c1ccc(O)cc1	inactive: 2.55%	–
Cc1ccc(NC(=O)CCn2cccc2)cc1F	–	inconclusive [inhibitor, partial curve]
CCC(=O)N1c2ccc(S(=O)(=O)CCC(=O)N3CCC4(CC3)OCCO4)cc2CC1C (stereo not drawn)	–	inconclusive [inhibitor, partial curve]
COc1cc(C(=O)NCC(c2cccs2)S(=O)(=O)c2cccs2)cc(OC)c1OC (stereo not drawn)	–	inconclusive [inhibitor, partial curve]
Nc1c(C(=O)N/N=C/c2ccccc2Cl)oc2nc(-c3ccccc3)cc(-c3ccco3)c12	–	inconclusive [inhibitor, single point]
COc1cc([C@@H]2C[C@H]3CN(c4ccccc4)C(=O)[C@]34CCCN24)cc(OC)c1OC	–	inconclusive [inhibitor, full curve, poor fit]

SMILES	activity change, negative = inhibition	Potency
O=C(/C=C/c1ccccc1)NC(=S)Nc1ccc(N2CCOCC2)cc1	inactive: -7.39%	–
CC/C=C/C(=O)N1CC2(CC(c3cccc(NC(=O)COc4ccc(Cl)cc4)c3)=NO2)C[C@H]1C(N)=O (stereo partly drawn)	–	inconclusive [inhibitor, partial curve]
O=C(Nc1ccc(OC(F)(F)F)cc1)Nc1cccnc1	inactive: -0.43%	–
Cc1c(Cl)cccc1N1C(=O)CC(N(O)c2ccccc2)C1=O (stereo not drawn)	–	active: 12.6 µM
COc1ccc(-n2nc3c(c2NC(=O)COc2cccc(OC)c2)CS(=O)(=O)C3)cc1	–	active: 31.6 µM
C/C(=N\Nc1ccc(Cl)c(C(=O)O)c1)c1ccc[nH]1	–	inconclusive [inhibitor, partial curve]
CCOC(=O)C1CCN(S(=O)(=O)c2c[nH]c(=O)[nH]c2=O)CC1	inactive: -9.1%	–
O=S(=O)(c1cnc(Cl)c(Cl)c1)N1CCCc2ccccc21	–	inconclusive [inhibitor, partial curve]
Cc1ccc(NC(=O)Nn2cnnc2)cc1Cl	inactive: 11.7%	–
COCCCNc1nc2c([nH]1)c(=O)[nH]c(=O)n2C	inactive: -7.43%	–
CCc1ccc(CNC(=O)C2CCN(c3nn4cc(-c5ccc(F)cc5)nc4s3)CC2)cc1	–	inconclusive [inhibitor, single point]
Cc1cccc(OCc2nnc(SCn3nnc4ccccc4c3=O)o2)c1	–	inconclusive [inhibitor, full curve, poor fit]
Cc1c(NC(=O)c2cc(-c3ccco3)on2)c(=O)n(-c2ccccc2)n1C	–	inconclusive [inhibitor, partial curve]
CCSC1=NC(C)(C)C=C(/C=C/c2ccc(Cl)cc2Cl)N1	–	active: 17.8 µM
COCCCNC(=S)N(CCCN(C)C)Cc1cc2cc3c(cc2[nH]c1=O)OCCO3	–	inconclusive [inhibitor, full curve, poor fit]
CCCCn1c(=O)[nH]c(=O)c2c1nc(-c1ccc(-c3ccccc3Br)o1)n2CCOC	–	inconclusive [inhibitor, full curve]
CC1(C)CC2(C)OC(=N)C1(C#N)C2(C#N)C#N (stereo not drawn)	–	active: 12.6 µM
Cc1ccc(C)c(S(=O)(=O)N2CCN(C(=O)c3ccccn3)CC2)c1	–	inconclusive [inhibitor, full curve, poor fit]
O=C1NC(=O)/C(=C/c2ccc(N3CCOCC3)o2)N1	–	active: 11.2 µM
CCC(=O)Nc1cccc(C2=NOC3(C2)C[C@@H](C(N)=O)N(C(=O)C(c2ccccc2)c2ccccc2)C3)c1 (stereo partly drawn)	inactive: -2.49%	–
COc1ccc(C(=O)CSc2ccc(-c3ccco3)nn2)cc1	–	active: 31.6 µM
COc1ccc(N2CCN(CC(=O)c3ccccc3)CC2)cc1	–	active: 12.6 µM
COc1ccc(N2C(=O)c3cccc4cccc(c34)C2=O)cc1	inactive: 4.29%	–
